Results reported in PubChem BioAssay AID1508624 (National Center for Advancing Translational Sciences (NCATS), 2021).
Screen size: about 48,000 compounds; about 120 (0.25%) were called active. Roughly 4% stayed inconclusive and do not appear here. Calls come from the whole dose curve; as a rule, active = well fitted activation curve with a large enough effect; inconclusive = small, poorly fitted or top-dose-only effect, or another doubt; inactive = no such curve, though single readings can be large or run the other way. The list shows a part of the results.

assay: Primary qHTS for Identification of Small Molecule Activators of Huntingtin-Antisense Promoter Activity; conditions: HEK293 HTT-AS promoter firefly luciferase reporter (activity 0% = vehicle and -100% = no light), 24 h; series mostly up to 57.5 µM; activity change, positive = activation: at the top concentration; note: nearly all actives have a fitted effect of over 55% in size
Outline: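 HEK293 cells carrying firefly luciferase reporters were seeded at 2,500 per well in Opti-MEM and cultured for 24 h. They were then treated with compounds at up to 57.5 uM final for 24 h at 37 degrees C before Dual-Glo luminescence readout.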

Activity change, positive = activation, inactive:
CCOC(=O)c1c(C)oc2nc(C)nc(Nc3cc(C)ccc3OC)c12 -1.3%
CCOc1ccccc1NC(=O)C1CCCN(S(=O)(=O)c2cn(C)cn2)C1 (stereo unspecified) -9.2%
CC(C)c1ccc(/C=C(\C#N)c2nc(-c3ccc(O)cc3)cs2)cc1 -20.1%
CCc1nnc(NC(=O)CSc2nc3c([nH]c4ccccc43)c(=O)n2-c2ccc(OC)cc2)s1 -20.4%
O=C(C1CCCCC1)N(Cc1cccnc1)c1nc2ccc(F)cc2s1 -14.8%
Cc1cccc(CS(=O)(=O)Cc2ccc(C(=O)NCc3ccc(Cl)cc3)o2)c1 -29.9%
CCCCC12CN3CC(C)(CN(C1)C3c1c(C)[nH]c(=O)[nH]c1=O)C2=O (stereo unspecified) 10.3%
COc1ccc(-c2cccc(NS(=O)(=O)c3cc(C)c(Cl)cc3C)c2)nn1 -51.8%
CCN(CCCNC(=O)c1nn(-c2ccc(OC)cc2)c(=O)c2c1c1ccccc1n2C)c1cccc(C)c1 -5.13%
Cc1cccc(Cn2c(C)c(C)c3cc(C(=O)NCc4ccc(C)o4)ccc32)c1 -29.8%
Cc1cc(NC(=O)CN(C)S(=O)(=O)c2ccc3c(c2)CCC(=O)N3)ccc1Br -5.54%
CCOc1ccc(NC(=O)CN2C(=O)C(c3ccccc3)=NC23CCCCCC3)cc1 -18.5%
CCOc1ccc(CCNC(=O)c2cc3c(-c4cccc(OC)c4)nn(C)c3s2)cc1OCC -11%
CCC(C(=O)NCCc1ccc(Cl)cc1)n1nc(C)c2c(C)n(-c3ccccc3)nc2c1=O (stereo unspecified) -30.2%
Cc1nc2nc(SCC(=O)NC(C)c3ccccc3)nn2c(C)c1Cc1c(F)cccc1Cl (stereo unspecified) -13.1%
CCOc1ccc(CN2C(=O)c3ccccc3Sc3ccc(C(=O)NCc4ccc(C)cc4)cc32)cc1 -14.2%
COc1cccc(CSc2nc3n(n2)C(c2ccccc2C)C(C(=O)Nc2ccccc2OC)=C(C)N3)c1 (stereo unspecified) -13.7%
O=C(CSc1oc(-c2ccco2)nc1S(=O)(=O)c1ccc(Cl)cc1)c1ccccc1 -7.49%
Cc1cccc(C(=O)Nc2ccc(N3CCC(CCN4CCOCC4)CC3)c(C(=O)O)c2)c1 -5.97%
O=C(Nc1ccc(S(=O)(=O)N2CCC(c3nc4ccccc4s3)CC2)cc1)c1ccccc1F -9.7%
CCN(C(=O)NCc1noc2ccccc12)c1cc(C)ccc1C -22.9%
CCOC(=O)c1nc(Nc2cccc(C)c2)c2ccccc2n1 -25.1%
CCCCCOc1ccc(C(=O)N(Cc2ccccc2)C2CCS(=O)(=O)C2)cc1 (stereo unspecified) -27.4%
Cc1ccc2nc(/C(C#N)=C/c3ccc(-c4cccc(Cl)c4)o3)[nH]c2c1 -16.7%
CCOc1ccc(CNC(=O)CCn2cccn2)cc1OC -6.73%
CCCn1c(=O)c2sccc2n2c(CCCC(=O)NCCOC)nnc12 -4.57%
CN(C)c1ccc(CN(CC2CCCO2)C(=O)COc2ccc(Cl)cc2)cc1 (stereo unspecified) -21.2%
CCc1ccc(-n2c(C)nc3cc(C(=O)NCCc4ccccc4)ccc32)cc1 -14.9%
COc1ccccc1NC(=O)CSc1ncc2c(n1)-c1cc(Cl)ccc1N(C)S2(=O)=O -27.3%
Cc1nc(N2CCCC2)ncc1C(=O)Nc1ccccc1 1.45%
CC(C)CC(=O)Nc1ccc(C(=O)OCc2cc(=O)n3nc(C4CCCCC4)sc3n2)cc1 -1.6%
COc1cccc(CN2C(=O)c3ccccc3C2C(=O)NCCc2ccc(OC)c(OC)c2)c1 (stereo unspecified) -11.4%
CC(=O)N1CCCc2cc(S(=O)(=O)N3CCCC(C(=O)NCc4ccc(Cl)cc4)C3)ccc21 (stereo unspecified) -66.2%
Cc1cc(O)c(C(c2cccc(Cl)c2)N2CCN(c3ccccc3)CC2)c(=O)n1Cc1ccco1 (stereo unspecified) 3.7%
COCCCn1c(=N)c(C(=O)NC2CCCC2)cc2c(=O)n3ccccc3nc21 -3.35%
Cc1ccc(CCNC(=O)CCSCc2ccc(Cl)cc2)cc1 -6.61%
Cc1ccc(-c2nc3c4cnn(-c5cc(Cl)ccc5Cl)c4ncn3n2)cc1 0.688%
CCN(CC)CCNC(=O)c1cc(Br)c(N)cc1OC -5.12%
CCOc1ccc(-n2c(SCc3nc(-c4ccccc4C)no3)nnc2-c2ccccc2)cc1 -8.47%
Cc1ccc(S(=O)(=O)c2nnn3c2nc(Nc2ccc(C(C)C)cc2)c2sccc23)cc1C -19.1%
CC(C)Cc1nn2c(=O)cc(COC(=O)c3ccccc3NC(=O)c3ccccc3)nc2s1 -16.2%
CC(=O)Nc1ccc(NC(=O)CN2C(=O)CN(C)C(=O)c3ccccc32)cc1 -4.65%
O=C(Nc1ccc2c(c1)N(C1CCCC1)C(=O)c1ccccc1S2)c1ccccc1 -39.5%
COc1ccc(CCNC(=O)C(=O)NCC(c2cccs2)S(=O)(=O)c2ccccc2)cc1 (stereo unspecified) -41.9%
Cc1ccc(SCC(=O)Nc2ccc3oc(-c4cccc(C)c4)nc3c2)cc1 -3.84%
COc1cccc(-c2nc(CS(=O)CC(=O)N3CCN(c4cccc(C(F)(F)F)c4)CC3)c(C)o2)c1 (stereo unspecified) -28%
Cc1ccc(Cl)cc1NC(=O)CCS(=O)(=O)c1ccc(Br)s1 -21.6%
CCN1C(=O)CC(C(=O)Nc2ccc(OC)cc2)SC1=Nc1ccc(C)c(C)c1 (stereo unspecified) -6.18%
O=C(NCCC1=CCCCC1)c1ccc2c(c1)N(Cc1ccccc1)C(=O)c1ccccc1S2(=O)=O -5.89%
O=C(Cn1cc(SCc2ccccc2Cl)c2ccccc21)N1CCCCCC1 -13.5%
COc1ccc(OC)c(CNS(=O)(=O)c2ccc(-c3cc(C(F)(F)F)on3)s2)c1 -42.4%
CCC1CN(C(=O)NCc2ccc(F)cc2)c2ccccc2O1 (stereo unspecified) -15.1%
Cc1ccc(NC(=O)c2ccco2)c(OCc2cc(=O)n3cc(C)sc3n2)c1 -7.4%
COc1ccc(-n2c(=O)c3c4c(sc3n(Cc3cc(=O)n5c(C)cccc5n3)c2=O)CCC4)c(OC)c1 -6.73%
CC(C)(Cc1c[nH]c2ccccc12)NCC(O)COc1ccccc1C#N (stereo unspecified) -8.35%
Cc1ccc(Cn2c(=O)c3ccccc3n3c(-c4ccccc4)nnc23)cc1 3.37%
CCc1ccc(CNC(=O)CSCc2cnn(-c3ccccc3)c2-n2cccc2)cc1 -10.3%
COc1ccc(C2CC(=O)N3CN(C4CCCCC4)CSC3=C2C#N)cc1 (stereo unspecified) 4.65%
Cc1ccc(OCC(=O)Nc2ccc3nc(SCC(=O)N4CCCC4)sc3c2)cc1C -8.78%
COc1ccc(NC(=O)CCCS(=O)(=O)c2nc(-c3ccc(OC)c(OC)c3)cc(C(F)(F)F)n2)cc1OC -73.8%
O=C(NCc1ccc(Cl)cc1)C1CCCN(c2ncnc3onc(-c4ccc(F)cc4)c23)C1 (stereo unspecified) -20.1%
